This passage reports survival results from PubChem BioAssay AID463173 (ICCB-Longwood Screening Facility, Harvard Medical School, 2010).

The whole screen tested about 52,000 compounds, of which about 4,300 (8.3%) were called active. No stated cut-off is given here; in the data, active means survival mostly below about 52% (no sharp cut-off); inactive means mostly above about 56%. Some of the results follow.

This test concerns DeltatarO mutant. Briefly: S. aureus survival, RN4220 and DeltatarO strains – OD600, teichoic acid synthesis inhibitors, primary screen (AID 463173). Conditions: S. aureus RN4220 wild type/DeltatarO growth, OD600, 18 h, active compounds read low, screened at 18.75 µg/mL (by protocol).
Consider `CN(c1ccccc1)S(=O)(=O)c1nnc(NC(=O)c2ccccc2)s1`, for which the survival is active: 32%.

As to `CC(C)n1cnc(S(=O)(=O)N2CCCC(C(=O)NCc3ccccc3Cl)C2)c1` (stereo not drawn), the survival is inactive: 92%.

Regarding `N#Cc1cc2sc3nc4ccccc4n3c2cc1C#N`, the survival was inactive: 90%.

With `CCCOc1c(Cl)cc(C(=O)N(Cc2cccc(OC)c2)C2CCS(=O)(=O)C2)cc1Cl` (stereo not drawn), the survival is inactive: 81%.

As for `CC(C)NC(=O)C1CCC(Cn2c(=O)c3sccc3n(CC(=O)NCc3ccccc3)c2=O)CC1` (stereo not drawn), the survival is inactive: 78%.

In the case of `COc1ccc(NC(=O)Cn2cnc3c(oc4ccccc43)c2=O)cc1OC`, the survival is inactive: 79%.

In the case of `CCOc1ccc(NC(=O)c2cnc(N3CCCCC3)c3ccccc23)cc1`, the survival was inactive: 94%.

For `Cc1cccc(C(=O)Nc2ccccc2C#N)c1`, the survival was inactive: 95%.

Take `COc1cccc(CNC(=O)CSc2c3c(nc4cc(Cl)ccc24)CCCC3)c1`: the survival was inactive: 48%.

In the case of `O=C(CS(=O)CC(=O)Nc1cccc2c1CCCC2)Nc1ccc(F)cc1` (stereo not drawn), the survival was inactive: 75%.

For `COc1ccc(Cn2c(=O)c3oc4ccccc4c3n(Cc3cccc(C)c3)c2=O)cc1`, the survival is inactive: 64%.

With `CCOc1ccccc1NC(=O)Cn1cc(C(=O)c2ccc(Cl)cc2)c(=O)c2ccc(C)nc21`, the survival was inactive: 87%.

In the case of `Cc1cccc2c(=O)cc(CSc3ccccc3NC(=O)c3cccc(F)c3)[nH]c12`, the survival is inactive: 92%.

As to `COC(=O)Cn1c(=O)c2cccn2c2cccnc21`, the survival was inactive: 120%.

`CCOc1ccc(C(=O)c2c(N)c(-c3nc(-c4ccc5c(c4)OCO5)cs3)c3ccccn23)cc1`: the survival is inactive: 108%.

Regarding `Cc1ccsc1CN(C(=O)c1oc2cc(Br)ccc2c1C)C1CCS(=O)(=O)C1` (stereo not drawn), the survival was inactive: 64%.

As for `O=C(CCn1ccc2cc(S(=O)(=O)N3CCCC3)ccc21)NCc1cccc(Br)c1`, the survival is inactive: 126%.

For the compound `Cc1ccc(C)c(Nc2nn3c(=O)c4ccc(C(=O)NC5CCCCC5)cc4nc3s2)c1`, the survival is inactive: 77%.

For `COc1ccc(CCNC(=O)CCCCn2c(=O)c3ccccc3n(Cc3ccc(F)cc3Cl)c2=O)cc1OC`, the survival is inactive: 82%.

As to `Cc1ccc(-c2nc3ncccc3o2)cc1NC(=O)c1cccc(OCC(C)C)c1`, the survival is active: 42%.

On to `Cn1c(=O)c2c(nc(NCc3ccccc3)n2Cc2ccccc2Cl)n(C)c1=O`, for which the survival was inactive: 58%.

`O=C(C1CC1)N1CCN(c2nc3ccc(F)cc3s2)CC1`: the survival is inactive: 117%.

For `CN(C)S(=O)(=O)c1ccc2c(c1)nnn2CCNC(=O)Nc1ccc(Br)cc1`, the survival was inactive: 83%.

Regarding `CCCCOc1ccc(CNC(=O)c2cnc3sc(N4CCOCC4)nn3c2=O)cc1`, the survival is inactive: 69%.

For `COc1cccc(OCc2nc3ccccc3n2CCOc2ccccc2C)c1`, the survival is active: 38%.

On to `O=C(NCCSc1c(-c2ccc(F)cc2)[nH]c2ccccc12)c1ccc(S(=O)(=O)N2CCOCC2)cc1`, for which the survival is inactive: 86%.

Turning to `COc1cccc(NC(=O)C2CCN(C(=O)N3CC(C)Oc4ccccc43)CC2)c1` (stereo not drawn), the survival is inactive: 101%.

For the compound `COc1cccc(Cn2c(=O)n(-c3ccccc3C)c(=O)c3c2c2cc(C)ccc2n3C)c1`, the survival is inactive: 80%.

For `COc1ccc(Cl)cc1C(=O)Nc1ccc(-c2nnc3n2CCCCC3)cc1`, the survival is inactive: 72%.

In the case of `O=C(NCc1ccccc1Cl)c1ccc2c(O)c(S(=O)(=O)c3ccccc3)c(=O)[nH]c2c1`, the survival is inactive: 78%.

With `Cc1ccc(CNC(=O)CN2C(=O)C3CCCCN3c3ccc(C(=O)N4CCCC4)cc32)cc1` (stereo not drawn), the survival was inactive: 76%.

Turning to `COc1cccc(-n2c(SCc3ccccc3C)nc3c([nH]c4ccccc43)c2=O)c1`, the survival was inactive: 102%.

As to `CC(=O)c1ccc(NC(=O)CCc2c(C)nc3cc(-c4ccc(Cl)cc4)nn3c2C)cc1`, the survival was inactive: 47%.

With `Cc1cccc(Cc2c(C)nc3nc(SCc4ccccc4C)nn3c2C)c1`, the survival was inactive: 95%.

On to `Cc1ccc(C)c(NC(=O)CN(CCc2ccccc2)S(=O)(=O)c2ccccc2)c1`, for which the survival is active: 46%.

On to `CCC1CN(C(=O)Nc2cc(C)cc(C)c2)c2ccccc2O1` (stereo not drawn), for which the survival is inactive: 59%.

As to `O=C(O)c1ccc(CSc2nnc(-c3ccncc3)n2CC2CCCO2)cc1` (stereo not drawn), the survival was inactive: 76%.

Turning to `CCc1ccc(NC(=O)Cn2c(=O)n(CCC(=O)NCc3ccc4c(c3)OCO4)c(=O)c3ccccc32)cc1`, the survival was inactive: 91%.

For `Cc1c(C)n(Cc2ccccc2)c2ccc(C(=O)NCc3ccco3)cc12`, the survival was inactive: 101%.

Take `Cc1c(-c2nsc(NC(=O)c3cccs3)n2)nnn1-c1ccc(Br)cc1`: the survival was inactive: 77%.

Take `Cc1cccc(CN2CCc3nc(N4CCN(c5ccccn5)CC4)ncc3C2)c1`: the survival was inactive: 88%.

`Cn1c(=O)c2c(n(C)c1=O)=NC1(CCCCC1)ON=2`: the survival is inactive: 73%.

With `CCCc1cc(=O)n2[nH]c(NCc3ccccc3OC)nc2n1`, the survival was inactive: 103%.

Turning to `Cc1ccc(S(=O)(=O)N2CCC(c3ccncc3)CC2)c(C)c1`, the survival was inactive: 128%.

As to `CCOC(=O)c1c(C)n(CC)c2cc(Br)c(O)cc12`, the survival was inactive: 106%.

As for `O=C(COc1ccccc1-c1nc(-c2ccccc2)no1)Nc1ccccc1[N+](=O)[O-]`, the survival is active: 31%.

Regarding `CC(C)CCNC(=O)[C@@H](c1ccccc1)N1Cc2ccccc2C1=O`, the survival was active: 12%.

As to `Cc1cccc(N2C(=O)C3C(C(=O)NC4CC4)C4C=CC3(O4)C2C(=O)NC2CCCC2)c1` (stereo not drawn), the survival was inactive: 75%.

Regarding `CCOc1ccc(NC(=O)Cn2nnc(C(=O)Nc3ccc(OCC)cc3)c2N)cc1`, the survival is inactive: 96%.

With `CCc1nn(CC(=O)NC(C)c2ccccc2)c(=O)c2cc3sccc3n12` (stereo not drawn), the survival was inactive: 88%.

For `CCOC(=O)C1=C(CS(=O)(=O)c2ccc(F)cc2)NC(=O)NC1c1ccc(OCC)c(OC)c1` (stereo not drawn), the survival is inactive: 119%.

For the compound `Cc1cc(C)cc(OCC(=O)NCC2(N(C)C)CCCCC2)c1`, the survival is inactive: 105%.

For `Cc1ccc(C)c(N2CCN(c3cc(C)nc4c(-c5ccc(Cl)cc5)c(C)nn34)CC2)c1`, the survival was inactive: 99%.

For the compound `CCOc1ccc(S(=O)(=O)NCc2ccc3c(c2)OCO3)cc1`, the survival is inactive: 85%.

Take `O=C(NCc1ccccc1Cl)C1CCCN(c2ncnc3onc(-c4ccc(F)cc4)c23)C1` (stereo not drawn): the survival was inactive: 91%.

`CC(=O)Nc1ccc(C2Nc3c(C)cc(C)cc3-c3cc(C)nn32)cc1` (stereo not drawn): the survival is inactive: 161%.

Regarding `Cc1ccc(S(=O)(=O)NCCSc2nnnn2-c2ccc(Cl)c(C(=O)O)c2)cc1`, the survival is inactive: 138%.

For the compound `COc1cc(OC)c(NS(=O)(=O)c2ccc3c(c2)NC(=O)CCS3)cc1Cl`, the survival is inactive: 109%.

`CCOC(=O)c1c(C)oc2nc(C)nc(NCc3ccccc3OCC)c12`: the survival is inactive: 102%.

`Cc1cc(NNC(=O)c2ccccc2)nc(NNC(=O)c2ccccc2)n1`: the survival was inactive: 69%.

As for `CCOC(=O)c1ccc(NC(=O)C(Cc2ccccc2)NS(=O)(=O)c2ccc(Br)s2)cc1` (stereo not drawn), the survival is inactive: 90%.

For the compound `O=C(CS(=O)(=O)c1cccc2nsnc12)NCc1ccc(Cl)cc1`, the survival is inactive: 129%.

Turning to `COc1ccc(-c2c(C)nn3c4c(cnc23)C(=O)CC(c2ccccc2)C4)cc1` (stereo not drawn), the survival is inactive: 99%.

Regarding `CC(NC(=O)c1ccc(Nc2nc3ccccc3n3nnnc23)cc1)c1ccccc1` (stereo not drawn), the survival was inactive: 77%.

Consider `O=C(N1CCOCC1)N1CCC(NC(=O)C23CC4CC(CC(C4)C2)C3)CC1`, for which the survival is inactive: 61%.

As for `Cc1nc2nc(-c3ccc(Cl)cc3Cl)nn2c(C)c1CCC(=O)Nc1ccc(F)cc1`, the survival was inactive: 85%.

Take `CCCCN(C)CCCNC(=O)CN1C(=O)COc2ccc(S(=O)(=O)N3CCOCC3)cc21`: the survival is inactive: 86%.

In the case of `O=C(O)CCc1ccc(-c2cccs2)[nH]1`, the survival was inactive: 91%.

For the compound `Cc1cccc(-c2cc(NC(=O)C(C)(C)C)n(-c3ccccc3)n2)c1`, the survival is inactive: 99%.

For `COc1ccc(C(CC(=O)Nc2cccc(C)c2C)N2Cc3ccccc3C2=O)cc1` (stereo not drawn), the survival was inactive: 72%.

Regarding `COc1cc(C2c3c(oc4ccccc4c3=O)C(=O)N2c2nncs2)cc(OC)c1OC` (stereo not drawn), the survival was inactive: 73%.

With `Cc1cccc2cc(CNCc3ccco3)c(=O)[nH]c12`, the survival is inactive: 78%.

Take `O=C(COc1ccc(F)cc1)Nc1ccccc1C(=O)OCc1cc(=O)n2nc(C3CC3)sc2n1`: the survival was inactive: 97%.

On to `CCOc1ccc(-c2cn3c(n2)sc2cc(C(=O)NCCCc4ccccc4)ccc23)cc1`, for which the survival was inactive: 72%.

Turning to `Cc1nc2nc(SCc3ccc(F)cc3Cl)nn2c(C)c1Cc1ccccc1`, the survival was inactive: 81%.

Consider `COc1ccc(CCNC(=O)CN(c2cc(C(F)(F)F)ccc2Cl)S(C)(=O)=O)cc1`, for which the survival was inactive: 61%.

On to `Cc1ccc(OCC(=O)Nc2ccccc2C(=O)OCc2cc(=O)n3ccsc3n2)cc1C`, for which the survival is inactive: 82%.

Turning to `O=C(Cn1ccc2cc(S(=O)(=O)N3CCCCC3)ccc21)NCCc1ccc(Cl)cc1`, the survival was inactive: 101%.

As to `O=C(O)Cc1sc(Nc2ccccc2Cl)nc1-c1ccccc1`, the survival is inactive: 81%.

Take `CCOC(=O)c1c(NC(=O)Cc2coc3cc(C)ccc23)sc2c1CCCC2`: the survival was inactive: 95%.

Turning to `CCc1ccc(NC(=O)c2cc3nc(-c4ccc(C)cc4)cc(C(F)(F)F)n3n2)cc1`, the survival is inactive: 54%.

For `COC(=O)c1sc(NC(=O)c2cc3nc(-c4ccc(Br)cc4)cc(C(F)(F)F)n3n2)c(C(=O)OC)c1C`, the survival was inactive: 58%.

Regarding `COc1ccccc1N1CCN(S(=O)(=O)c2c(C)sc3ncn(CC(=O)Nc4ccc(C(F)(F)F)cc4)c(=O)c23)CC1`, the survival was inactive: 71%.

Turning to `CC(=O)c1ccc(NC(=O)C2CCCN(S(=O)(=O)c3ccc4c(c3)CCCN4C(C)=O)C2)cc1` (stereo not drawn), the survival is inactive: 93%.

For the compound `Cc1cc(C)c(NC(=O)CCCN2C(=O)COc3ccc(C)cc32)c(C)c1`, the survival was inactive: 111%.

On to `CCCCn1c(=O)c(C(=O)OCC)c(O)c2ccccc21`, for which the survival is inactive: 52%.

`COc1ccc(NC(=O)CSc2nc3cc(OC)c(OC)cc3c3nc(-c4ccccc4)nn23)cc1Cl`: the survival was inactive: 123%.

Regarding `COC(=O)c1ccc(NC(=O)C(=O)NCCc2sc(-c3cccc(F)c3)nc2C)cc1`, the survival is inactive: 98%.
